The values that follow come from paper PMC5923123, “In Vitro and In Vivo Efficacy of a Novel and Long-Acting Fungicidal Azole, PC1244, on Aspergillus fumigatus Infection” (Antimicrobial Agents and Chemotherapy, 2018).

≈ marks a conversion by molar mass, not a printed value.

In general, MIC refers to the lowest concentration found to suppress growth. High values mean a need for much substance, low ones inhibition by little substance.

For this assay, the system named is four ITC-susceptible laboratory A. fumigatus strains (ATCC 1028, ATCC 10894, ATCC 13073, ATCC 16424). Briefly: CLSI M38-A MIC (visual). The settings on record: for MIC: Aspergillus fumigatus.

`C[C@@H](c1ncncc1F)[C@](O)(Cn1cncn1)c1ccc(F)cc1F` [Voriconazole, voriconazole]: the MIC came out at 0.5 mg/L (≈ 1.43 µM). Molecule `Cc1cc(N2CCN(c3ccc(C(=O)N[C@H]4CCCC[C@@H]4O)cc3)CC2)ccc1OC[C@@H]1CO[C@@](Cn2cncn2)(c2ccc(F)cc2F)C1` [PC1244, 4-(4-(4-(((3R,5R)-5-((1H-1,2,4-triazol-1-yl)methyl)-5-(2,4-difluorophenyl)tetrahydrofuran-3-yl)methoxy)-3-methylphenyl)piperazin-1-yl)-N-((1S,2S)-2-hydroxycyclohexyl)benzamide] had an MIC of 0.063 mg/L (≈ 0.0917 µM). For the same molecule, the “fold more potent than VRC (MIC)” value (CLSI M38-A) is given as 8 fold. `CC[C@@H]([C@H](C)O)n1ncn(-c2ccc(N3CCN(c4ccc(OC[C@@H]5CO[C@@](Cn6cncn6)(c6ccc(F)cc6F)C5)cc4)CC3)cc2)c1=O` [Posaconazole, posaconazole] displayed an MIC of 0.047 mg/L (≈ 0.0671 µM).
